The text below walks through data of publication PMC6372478.

No constants are given. Whether binding was seen depends on the method and setting. Binding seen in cells or lysates may run through a third protein. Some entries that bind do so weakly or less than the wild type. For some assays here: Sequences can lack the tags named with a protein.

Experiment [1] concerns the target Hsp90ab1 (human (endogenous in BGC823 and MKN45)) (UniProt P08238). Description: co-IP; endogenous proteins from pre-cleared BGC823 and MKN45 lysates; primary antibody and protein A/G beads overnight at 4 °C, washed with PBS; Western blot; both directions.
Experiment [2] deals with low-density lipoprotein receptor-related protein 5 (human (endogenous in BGC823 and MKN45)) (UniProt O75197). The experiment is described as above.
Experiment [3] has as its target GST-tagged Hsp90ab1 fragment (1–263/610–724a) (human) (UniProt P08238). In words: pull-down; GST fusion protein on GSH beads incubated with lysates of HEK293T cells (transfected with Flag-LRP5) at 4 °C for 4 h; washed; Western blot; only the target purified. (In general: In western blotting, separated proteins are transferred to a membrane and probed.)
Experiment [4] concerns the target GST-tagged Hsp90ab1 fragment (264–609a) (human) (UniProt P08238). The experiment is described as above.
In experiment [5] the target is T1, GST-pET-41a(+)-LRP5 (1409–1615a) (UniProt O75197).
T1 sequence: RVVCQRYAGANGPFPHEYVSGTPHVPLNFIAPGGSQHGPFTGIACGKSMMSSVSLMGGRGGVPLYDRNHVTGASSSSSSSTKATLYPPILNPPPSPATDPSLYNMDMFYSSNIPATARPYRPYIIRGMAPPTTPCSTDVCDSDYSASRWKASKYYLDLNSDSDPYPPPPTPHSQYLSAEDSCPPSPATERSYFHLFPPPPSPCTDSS
The experiment is described as above.

“low-density lipoprotein receptor-related protein 5 (from UniProt O75197 32-1615)”: the binding result in experiment [1] is reported as “binds”. Hsp90ab1 (from UniProt P08238 1-724): the binding entry in experiment [2] is “binds”. With “Flag-LRP5 (from UniProt O75197 32-1615) (receptor)”, the figures for the binding entry in experiment [3] and in experiment [4] were “no binding” and “binds”, respectively.

On to “Hsp90ab1 (prey of the GST-LRP5 fragment pull-down) (from UniProt P08238 1-724)”, for which the binding result in experiment [5] is given as “binds”.
